Measurements as given in the supplement of paper PMC8728848.
The list shows a part of the results.

Key:
Assay in all cases: glycan array binding signal (z-score within array); higher = stronger binding
Details in all cases: glycan notation: IUPAC condensed, linker removed
[1] = target: Neu5Ac(a2-6)GalNAc(b1-4)GlcNAc
How it was run: (§1)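 Glycan array binding is given as a within-array Z-score, which can be read as non-binding when negative. The arrays, 3228 of them, came from the Consortium for Functional Glycomics database and were retained only where the protein sequence was available. Z-scores were averaged across arrays of the same protein sequence at different concentrations or buffers and across linkers.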

[2] = target: Neu5Ac(a2-6)GalNAc(b1-4)GlcNAc6S
How it was run: as §1

[3] = target: Neu5Ac(a2-6)GlcNAc(b1-4)GlcNAc
How it was run: as §1

[4] = target: Neu5Ac(a2-6)GlcNAc(b1-4)GlcNAc(b1-4)GlcNAc
How it was run: as §1

Neu5Ac(a2-8)Neu5Ac = target: Neu5Ac(a2-8)Neu5Ac
How it was run: as §1

[5] = target: Neu5Ac(a2-8)Neu5Ac(a2-3)Gal(b1-3)GalNAc(b1-4)[Neu5Ac(a2-3)]Gal(b1-4)Glc
How it was run: as §1

[6] = target: Neu5Ac(a2-8)Neu5Ac(a2-3)Gal(b1-3)GalNAc(b1-4)[Neu5Ac(a2-8)Neu5Ac(a2-3)]Gal(b1-4)Glc
How it was run: as §1

[7] = target: Neu5Ac(a2-8)Neu5Ac(a2-3)Gal(b1-4)Glc
How it was run: as §1

[8] = target: Neu5Ac(a2-8)Neu5Ac(a2-3)Gal(b1-4)GlcNAc
How it was run: as §1

[9] = target: Neu5Ac(a2-8)Neu5Ac(a2-3)[Gal(b1-3)GalNAc(b1-4)]Gal(b1-4)Glc
How it was run: as §1

[10] = target: Neu5Ac(a2-8)Neu5Ac(a2-3)[GalNAc(b1-4)]Gal(b1-4)Glc
How it was run: as §1

[11] = target: Neu5Ac(a2-8)Neu5Ac(a2-8)Neu5Ac
How it was run: as §1

[12] = target: Neu5Ac(a2-8)Neu5Ac(a2-8)Neu5Ac(a2-3)Gal(b1-4)Glc
How it was run: as §1

[13] = target: Neu5Ac(a2-8)Neu5Ac(a2-8)Neu5Ac(a2-3)[Gal(b1-3)GalNAc(b1-4)]Gal(b1-4)Glc
How it was run: as §1

[14] = target: Neu5Ac(a2-8)Neu5Ac(a2-8)Neu5Ac(a2-3)[GalNAc(b1-4)]Gal(b1-4)Glc
How it was run: as §1

[15] = target: Neu5Ac(a2-8)Neu5Ac(a2-8)Neu5Ac(a2-8)Neu5Ac(a2-3)[GalNAc(b1-4)]Gal(b1-4)Glc
How it was run: as §1

[16] = target: Neu5Ac(a2-8)Neu5Gc(a2-3)Gal(b1-4)GlcNAc
How it was run: as §1

[17] = target: Neu5Ac(b2-6)Gal(b1-4)GlcNAc
How it was run: as §1

Neu5Ac(b2-6)GalNAc = target: Neu5Ac(b2-6)GalNAc
How it was run: as §1

[18] = target: Neu5Ac9Ac(a2-3)Gal(b1-3)GlcNAc
How it was run: as §1

[19] = target: Neu5Ac9Ac(a2-3)Gal(b1-4)GlcNAc
How it was run: as §1

[20] = target: Neu5Ac9Ac(a2-6)Gal(b1-4)GlcNAc
How it was run: as §1

[21] = target: Neu5Gc(a2-3)Gal(b1-3)GlcNAc
How it was run: as §1

[22] = target: Neu5Gc(a2-3)Gal(b1-3)[Fuc(a1-4)]GlcNAc
How it was run: as §1

Neu5Gc(a2-3)Gal(b1-4)Glc = target: Neu5Gc(a2-3)Gal(b1-4)Glc
How it was run: as §1

[23] = target: Neu5Gc(a2-3)Gal(b1-4)GlcNAc
How it was run: as §1

[24] = target: Neu5Gc(a2-3)Gal(b1-4)GlcNAc(b1-3)Gal(b1-4)GlcNAc(b1-2)Man(a1-3)[Neu5Gc(a2-3)Gal(b1-4)GlcNAc(b1-3)Gal(b1-4)GlcNAc(b1-2)Man(a1-6)]Man(b1-4)GlcNAc(b1-4)GlcNAc
How it was run: as §1

[25] = target: Neu5Gc(a2-3)Gal(b1-4)[Fuc(a1-3)]GlcNAc
How it was run: as §1

[26] = target: Neu5Gc(a2-6)Gal(b1-4)GlcNAc
How it was run: as §1

Neu5Gc(a2-6)GalNAc = target: Neu5Gc(a2-6)GalNAc
How it was run: as §1

[27] = target: Neu5Gc(a2-8)Neu5Ac(a2-3)Gal(b1-4)GlcNAc
How it was run: as §1

[28] = target: Neu5Gc(a2-8)Neu5Gc(a2-3)Gal(b1-4)GlcNAc
How it was run: as §1

[29] = target: Neu5Gc(a2-8)Neu5Gc(a2-3)Gal(b1-4)GlcNAc(b1-3)Gal(b1-4)GlcNAc
How it was run: as §1

[30] = target: Neu5Gc(a2-8)Neu5Gc(a2-6)Gal(b1-4)GlcNAc
How it was run: as §1

[31] = target: Neu5Gc(b2-6)Gal(b1-4)GlcNAc
How it was run: as §1

B1: Epa9 (Candida glabrata), CAGL0A01386g (protein)
chain: MGSSHHHHHHSSGLVPRGSHMDITPFAHYPRPEGCSSPPNAVSVGLHMDLYNYPYLYVKNPRTGFTNDTDSDADGETDGDSAGGIEGRAGQCWNPEYQDPNFPRYGYKKYGSFGSSDHVNGKISWDHNEFKEGCKPIMARLPTAYNYPAKITFSNFTMVLSGYFKPKSTGLYKFEIHADDFILFNFGSKNAFECCNREESIDNFGPYVAYAMWPNEADQELEVYLFEDSYYPIRLFYNNRDYHSKFMVGFYPPNTEEITYDFDGYLYMLDDTGNECKDSIRYKTVCDD
- glycan array binding signal (z-score) [1]: -0.519
- glycan array binding signal (z-score) [2]: -0.452
- glycan array binding signal (z-score) [3]: -0.448
- glycan array binding signal (z-score) [4]: -0.485
- glycan array binding signal (z-score) (Neu5Ac(a2-8)Neu5Ac): -0.517
- glycan array binding signal (z-score) [5]: -0.395
- glycan array binding signal (z-score) [6]: 0.299
- glycan array binding signal (z-score) [7]: -0.54
- glycan array binding signal (z-score) [8]: -0.481
- glycan array binding signal (z-score) [9]: 0.516
- glycan array binding signal (z-score) [10]: -0.564
- glycan array binding signal (z-score) [11]: -0.463
- glycan array binding signal (z-score) [12]: -0.585
- glycan array binding signal (z-score) [13]: -0.301
- glycan array binding signal (z-score) [14]: -0.596
- glycan array binding signal (z-score) [15]: -0.649
- glycan array binding signal (z-score) [16]: -0.494
- glycan array binding signal (z-score) [17]: -0.481
- glycan array binding signal (z-score) (Neu5Ac(b2-6)GalNAc): -0.48
- glycan array binding signal (z-score) [18]: -0.479
- glycan array binding signal (z-score) [19]: -0.45
- glycan array binding signal (z-score) [20]: -0.486
- glycan array binding signal (z-score) [21]: -0.457
- glycan array binding signal (z-score) [22]: -0.462
- glycan array binding signal (z-score) (Neu5Gc(a2-3)Gal(b1-4)Glc): -0.47
- glycan array binding signal (z-score) [23]: -0.465
- glycan array binding signal (z-score) [24]: -0.421
- glycan array binding signal (z-score) [25]: -0.435
- glycan array binding signal (z-score) [26]: -0.428
- glycan array binding signal (z-score) (Neu5Gc(a2-6)GalNAc): -0.467
- glycan array binding signal (z-score) [27]: -0.456
- glycan array binding signal (z-score) [28]: -0.455
- glycan array binding signal (z-score) [29]: -0.468
- glycan array binding signal (z-score) [30]: -0.488
- glycan array binding signal (z-score) [31]: -0.447
